From paper PMC6919601, “Identification of Plasmodium dipeptidyl aminopeptidase allosteric inhibitors by high throughput screening” (PLoS ONE, 2019)
About 230 (0.21%) of roughly 110,000 compounds showed an effect of 50% or more. The list shows a part of the results.

Each compound was assayed against DPAP1 (Plasmodium falciparum, UniProt Q8IIJ9) (assay: primary screen, percent inhibition; read by cleavage of a fluorogenic dipeptide substrate; higher = more effect of the substance).
Design: species or system P. falciparum D10 trophozoite lysates; single well
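Note: 30 min substrate incubation versus DMSO and 10 µM JCP410 controls.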

DPAP1, sequence (Q8IIJ9 whole entry, looked up): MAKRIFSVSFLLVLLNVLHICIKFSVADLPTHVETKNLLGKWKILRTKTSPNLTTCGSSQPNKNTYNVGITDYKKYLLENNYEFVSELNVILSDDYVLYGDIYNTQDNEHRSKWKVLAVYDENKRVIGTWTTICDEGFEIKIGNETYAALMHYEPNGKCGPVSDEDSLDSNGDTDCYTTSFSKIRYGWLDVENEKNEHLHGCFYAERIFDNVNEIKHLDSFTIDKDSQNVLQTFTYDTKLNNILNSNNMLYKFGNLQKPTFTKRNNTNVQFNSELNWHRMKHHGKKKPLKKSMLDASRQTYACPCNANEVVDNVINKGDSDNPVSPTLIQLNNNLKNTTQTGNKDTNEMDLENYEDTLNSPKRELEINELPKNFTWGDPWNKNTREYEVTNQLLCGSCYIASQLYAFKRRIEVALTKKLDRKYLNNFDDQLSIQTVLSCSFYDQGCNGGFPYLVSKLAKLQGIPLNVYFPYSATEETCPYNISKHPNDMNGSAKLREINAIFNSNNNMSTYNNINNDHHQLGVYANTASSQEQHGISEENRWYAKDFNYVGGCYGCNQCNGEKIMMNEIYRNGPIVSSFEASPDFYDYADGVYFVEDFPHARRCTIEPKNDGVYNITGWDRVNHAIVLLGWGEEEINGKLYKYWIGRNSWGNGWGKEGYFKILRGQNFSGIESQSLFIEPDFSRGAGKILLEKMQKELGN

Row | Compound | % Inhibition @ 10 uM [%]
1 | Fc1ccccc1CN1CCc2c([nH]c3ccccc23)C1 | 6.11
2 | CCOc1cc(/C=C2\SC(=O)N(CC(=O)N3CCOCC3)C2=O)cc(Br)c1OCC | 7.71
3 | CCOc1ccc(-c2c(C)nn3c2NCN(Cc2ccc(C)cc2)C3)cc1OCC | -2.88
4 | CN(CC#CC(C)(C)O)Cc1ccccc1 | -1.77
5 | COc1cc(OC)cc(C(=O)N2CCN(c3ccccc3)CC2)c1 | 9.83
6 | COc1ccccc1[C@@H](C)C[C@H](NC(=O)c1cc2c(C(F)(F)F)nn(C)c2s1)C(=O)NCC#N | 0.079
7 | COc1cc(CN2CCN(c3ccc(Cl)cc3)CC2)cc(OC)c1O | 15
8 | CCCCC(C(=O)Nc1ccccc1)N1C(=O)c2ccccc2C1=O (stereo not drawn) | -2.88
9 | C=Cc1ccc(Cn2c(C)c(CNCCc3ccc(Cl)cc3)c(C(=O)O)c2C)cc1 | 10.2
10 | COc1ccc(NCC2CCCCC2)cc1 | -4.14
11 | CC(C)=C1SC(N2CCN(c3ccccc3C)CC2)=NC1=O | -2.17
12 | CC(=O)N1CCN(Cc2ccccc2F)CC1 | -6
13 | CC(C)c1ccccc1OCC(=O)Nc1ccc(S(=O)(=O)Nc2ccccn2)cc1 | 2.13
14 | O=C1C2C(c3ccccc3)C=CC(c3ccccc3)C2C(=O)N1n1cnnc1 (stereo not drawn) | -5.28
15 | COc1ccc(Br)cc1CNC1CCCC1 | 1.84
16 | CCOC(=O)Nc1ccc2c(c1)N(C(N)=O)c1ccccc1S2 | 3.96
17 | C=CCSc1nc(-c2ccccc2)cc(-c2ccccc2)c1C#N | -2
18 | COc1ccc(-c2nc(NC(C)=O)sc2-c2ccc(OC)cc2)cc1 | -0.597
19 | O=C(Nc1sc2c(c1C(=O)O)CCCC2)c1ccc(Br)cc1 | -4.31
20 | O=C1C2C(C(=O)N1c1ccccc1F)C2(c1ccccc1)c1ccccc1 (stereo not drawn) | 4.03
21 | COCCN1C(=O)C(O)=C(C(=O)c2ccccc2)C1c1ccc(O)c(OC)c1 (stereo not drawn) | 0.35
22 | Cc1ccc(S(=O)(=O)N2CCC(C(=O)N3CCC(C(=O)NCC4CCCO4)CC3)CC2)cc1 (stereo not drawn) | -4.97
23 | Cc1cc(-c2ccc(S(=O)(=O)N3CCc4ccccc4C3)cc2)on1 | -7.28
24 | O=C(CNS(=O)(=O)c1cccs1)N1CCCCCC1 | -3.05
25 | CC(=O)N1N=C(c2ccccc2)CC1c1cccc(Cl)c1 (stereo not drawn) | -3.04

Row | Compound | % Inhibition @ 10 uM [%]
26 | CCC(O)CN1CCN(c2ccc(C3CCCC3)cc2)CC1 (stereo not drawn) | 1.19
27 | CCOc1ccc(C(=O)C(CN2CCCC2)c2ccccc2)cc1 (stereo not drawn) | 0.408
28 | CCOc1ccc(C(=O)Nc2ccccc2C(C)C)cc1 | 3.44
29 | COc1ccc(Cc2nnc(NC(=O)c3ccc(C(C)(C)C)cc3)s2)cc1 | -0.769
30 | CN1C(=O)/C(=C\c2ccc3c(c2)OCO3)S/C1=N/c1ccccc1 | -6.17
31 | Cc1ccc(S(=O)(=O)N2CCN(Cc3ccccc3)CC2)cc1 | -5.41
32 | CCCCOc1ccc(/C=C(\C#N)c2nc(-c3ccc(OCC)cc3)cs2)cc1 | -6.07
33 | CC(C)OC(=O)c1cc2ccc(O)cc2oc1=O | -1.96
34 | COc1ccc(OC)c(NC(=O)C(c2ccccc2)c2ccccc2)c1 | -0.771
35 | CC(C)Cc1ccc(S(=O)(=O)NC2CCCC(C)C2C)cc1 (stereo not drawn) | 6.8
36 | CCN1CCN(C(=O)C2=CC(c3ccc(OC)cc3)=NS(=O)(=O)N2C)CC1 | 6.98
37 | O=C(NCCC1=CCCCC1)C(Cc1ccccc1)NS(=O)(=O)c1cccc2cccnc12 (stereo not drawn) | 2.6
38 | CC(Cc1ccccc1)NC(=O)/C=C/c1ccccc1 (stereo not drawn) | -1.64
39 | CCOC(=O)c1c(NC(=O)CSc2cn(C)c3ccccc23)sc2c1CCC2 | 8.32
40 | O=C(NCCc1ccccc1)C(=O)NC1CCCCC1 | -0.414
41 | CCOC(=O)c1cc2c(=O)n3ccccc3nc2n(CCCOC)/c1=N\C(=O)/C=C/c1ccccc1 | -2.9
42 | COc1ccc(C2N(S(C)(=O)=O)CCCN2S(=O)(=O)c2ccc(C)cc2)cc1 (stereo not drawn) | 3.54
43 | CC(C)(C)OC(=O)N1CCC(c2c(C(=O)N3CCC(c4ccccc4)C3)cnn2C(C)(C)C)CC1 (stereo not drawn) | 6.36
44 | CCOC(=O)c1cnc2ncnn2c1C | 2.39
45 | O=C(Nc1ccc(-c2ccc(Cl)cc2)cc1)NS(=O)(=O)c1ccccc1Cl | -4.61
46 | COc1ccc(O)c(CN2CC=C(c3ccc(F)cc3)CC2)c1 | 4.68
47 | Cc1cc(O)c(C(=O)/C=C/c2cc(Br)ccc2O)c(=O)o1 | -0.0369
48 | Nc1nc2c3ccccc3nc(C3CC3)n2n1 | -3.33
49 | Brc1ccc2c(c1)CN(C1CCCCC1)CO2 | -5.75
50 | Cc1cc(C)c2c(n1)nn1c(C)c(CCC(=O)N3CCC(Cc4ccccc4)CC3)c(C)nc21 | -2.45

Row | Compound | % Inhibition @ 10 uM [%]
51 | O=[N+]([O-])c1ccccc1CN1CCN(c2cccc(C(F)(F)F)c2)CC1 | 1.96
52 | O=C1NC(=O)/C(=C\c2ccc(N3CCOCC3)cc2)N1 | -6.32
53 | CCN(CC)c1ccc(NC(=O)COc2ccc(C)cc2)cc1 | 1.7
54 | COc1ccc(C2CC(C(F)(F)F)n3nc(C(=O)NCc4cn(C)nc4C)cc3N2)cc1OC (stereo not drawn) | -2.94
55 | O=c1c2c(c(-c3ccccc3)nn1Cc1ccccc1)CCCC2 | -2.71
56 | Cc1ccccc1C(=O)Nc1ccc(Br)cc1 | 5.06
57 | Cc1ccc(C(=O)N2CCN(c3ccc(F)cc3)CC2)cc1 | -1.62
58 | CCCCN(CC)CCNC(=O)CN1C(=O)C(c2ccccc2)Oc2cccnc21 (stereo not drawn) | -5.99
59 | CCOC(=O)C1CCN(C(=O)c2ccc(F)cc2)CC1 | -2.58
60 | COc1cc(C(=O)NC2CCCCCCC2)cc(OC)c1OC | -7.55
61 | CC1=C(C(=O)OCCC(C)C)C(c2ccc(Br)cc2)NC(=O)N1 (stereo not drawn) | 7.28
62 | Cc1nc2scc(C)n2c(=O)c1S(=O)(=O)NC(C)c1ccccc1 (stereo not drawn) | 0.128
63 | COc1cc([C@H]2[C@H](C(=O)C(C)(C)C)N3C=Cc4ccccc4[C@H]3C2(C#N)C#N)cc(OC)c1OC | 6.5
64 | CCn1c(C(=O)NCCCN2CCCCC2C)cc2sc(Cl)cc21 (stereo not drawn) | -1.37
65 | Cc1cccc(NC(=O)CSc2nc(C)cc(C(F)(F)F)c2C#N)n1 | -4.76
66 | CC(CC(=O)O)Nc1ccc(Oc2ccccc2)cc1 (stereo not drawn) | 3.69
67 | Cc1nc2c(nc(C)n2-c2ccccc2)s1 | 2.92
68 | COc1cccc(N2CCN(C3C4CC5CC(C4)CC3C5)CC2)c1 (stereo not drawn) | -0.446
69 | CC(C)(C)C(=O)NCc1nc(-c2ccccc2)no1 | -3.22
70 | Cc1nn2c(=O)/c(=C/c3ccc(-c4ccc(F)cc4)o3)sc2nc1=O | -13.4
71 | O=C(COc1ccccc1N1C(=O)C2C3C=CC(C4CC34)C2C1=O)c1ccc(F)cc1 (stereo not drawn) | 1.62
72 | O=C(c1ccccc1)N1N=C(c2ccco2)CC1c1ccco1 (stereo not drawn) | 1.49
73 | O=S1(=O)C(/C=N/c2cccnc2)=C(O)c2sccc2N1Cc1ccc(Cl)cc1 | 5.41
74 | COc1ccc(Cl)cc1N(CC(=O)NCc1ccccc1C)S(C)(=O)=O | 0.324
75 | CC(=O)c1c(C)oc2c(Cl)cc(NS(=O)(=O)c3cccs3)cc12 | 41.9

Row | Compound | % Inhibition @ 10 uM [%]
76 | Nc1ccc(S(=O)(=O)c2ccc(NC(=O)c3ccccc3Cl)cc2)cc1 | -2.72
77 | COc1cccc2c1Oc1ncccc1N(C(=O)CCC(=O)NCc1ccccn1)C2 | -3.94
78 | Cn1c(=O)c2c(nc(SCCN3CCOCC3)n2Cc2ccccc2Cl)n(C)c1=O | -5.08
79 | COc1ccccc1C1C(C#N)=C(N)Oc2[nH]nc(C(F)(F)F)c21 (stereo not drawn) | -3.26
80 | C=Cc1ccc(Cn2c(C)c(CNCCc3ccco3)c(C(=O)O)c2C)cc1 | 2.99
81 | O=C(O)[C@H]1CCCC[C@H]1C(=O)Nc1ccc(Br)c(Cl)c1 | 4.75
82 | COC(=O)c1ccc(-n2nnnc2SCc2ccccn2)cc1 | -1.43
83 | Cc1ccc(S(=O)(=O)N2CCCC2C(=O)NCCC23CC4CC(CC(C4)C2)C3)cc1 (stereo not drawn) | 2.79
84 | Cn1c(=O)c2c(nc(SCc3ccccc3)n2Cc2ccc(Cl)cc2)n(C)c1=O | 3.34
85 | c1ccc2c(NCC3CCCO3)nc(N3CCOCC3)nc2c1 (stereo not drawn) | -0.312
86 | Cc1ccc(/C=C/C(=O)N(Cc2ccccc2)c2ccccn2)cc1 | 3.62
87 | Cc1ccsc1CCNS(=O)(=O)c1ccc(-c2ccc(O)nn2)s1 | 3.76
88 | CCOCCCNC(=O)C(NC(=O)C1CCC(=O)N1)c1ccc(C)cc1 (stereo not drawn) | -2.9
89 | CN1CCN(C(CC(=O)Nc2ccccc2Cl)C(=O)O)CC1 (stereo not drawn) | -3.43
90 | COc1ccc(OC)c(CCNCc2c(C(=O)O)c(C)n(Cc3ccc(F)cc3)c2C)c1 | -7.36
91 | CCN(CC)c1ccc(NC(=O)c2ccc(OC)cc2OC)cc1 | 0.331
92 | COc1ccc(OC)c(/C=C/C(=O)NCC2CCCO2)c1 (stereo not drawn) | 2.49
93 | CC(C)CC(NC(=O)c1cccc(NC(=O)N2CCN(CCN3CCOCC3)CC2)c1)C(=O)NCC#N (stereo not drawn) | -7.36
94 | O=C(Nc1nccs1)c1ccc2c(c1)C(=O)N(CC1CCCO1)C2=O (stereo not drawn) | 19.3
95 | COc1cc(/C=c2\sc3nc(-c4oc5ccccc5c4C)nn3c2=O)cc(OC)c1OC | 1.91
96 | O=S(=O)(c1ccccc1)N1CCSC1c1ccco1 (stereo not drawn) | 2.46
97 | COc1ccc(NC(=O)CN(c2ccc(C)c(Cl)c2)S(C)(=O)=O)cc1OC | -3.39
98 | O=C(O)CCCCCN1C(=O)c2ccc(C(=O)O)cc2C1=O | 2.68
99 | CCOc1cccc2cc(-c3csc(NC(=O)CCC(=O)N4CCOCC4)n3)c(=O)oc12 | 3.7
